Measured values from PubChem BioAssay AID1347417 (National Center for Advancing Translational Sciences (NCATS), 2020).
About 5,300 (4.4%) of roughly 120,000 compounds were called active. This list was built around the results that the source calls inconclusive (neither active nor inactive); the mix of calls is not that of the screen. Calls follow the shape of the dose curve; as a rule, active = well fitted inhibition curve with a large enough effect; inconclusive = small, poorly fitted or top-dose-only effect; inactive = no such curve, though single readings can be large or run the other way. A potency beside an inconclusive call is a rough fit, not a confirmed value.

experiment: qHTS Primary assay for Inhibitors of Plasmodium falciparum Dd2 growth in vitro; also: nearly all actives have a fitted effect of over 65% in size;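 as to activity, negative = inhibition: plate controls were DMSO vehicle for no effect and reference drug for full effect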; conditions: P. falciparum Dd2 growth, SYBR Green, 72 h; activity, negative = inhibition: at 28.9 µM (top of the series) unless noted; series mostly up to 28.9 µM
How it was run: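 Infected erythrocytes (Dd2, 0.3% parasitemia, 2.5% hematocrit final) are added to compound in RPMI-1640/Albumax II medium, grown 72 h at 37C in low oxygen, then lysed with saponin/Triton-X containing SYBR Green and read by fluorescence.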
Potency is read from the fitted curve at half-maximal effect; tags tell the direction and shape of the fitted curve.

SMILES	Potency	activity, negative = inhibition	outcome
O=C(OCC1CCCO1)c1ccc2c(c1)N(Cc1cccc(Cl)c1)C(=O)c1ccccc1S2(=O)=O (stereo not given)	inconclusive: 17.8 µM [inhibitor, single point]		
CC(C)n1cnnc1-c1nn(C)c2c1CN(C(=O)c1n[nH]c3ccccc13)CC2	inconclusive: 7.94 µM [inhibitor, partial curve, poor fit]		
O=C(c1ccc2c(c1)N(Cc1ccc(F)cc1)C(=O)c1ccccc1S2=O)N1CCOCC1 (stereo not given)		inactive: -15.4%	
CCN(c1ccccc1)S(=O)(=O)c1ccc(NC(=O)c2cc(=O)c3cc(C)ccc3o2)cc1	inconclusive: 0.0355 µM [inhibitor, full curve, poor fit]		
COc1cc(C(=O)Nc2nc3c(s2)Cc2c(Br)ccc(OC)c2-3)cc(OC)c1OC	active: 3.16 µM		
CCC(Sc1nc2ccccc2c2nc(CCc3c(C)n[nH]c3C)nn12)C(=O)Nc1ccc(OC)cc1 (stereo not given)	inconclusive: 10 µM [inhibitor, single point]		
CCc1noc([C@@H]2CC(F)(F)CN2C(=O)c2cn(C)cn2)n1			inactive
COc1ccc(Cl)cc1NC(=O)CSc1c2c(nc3ccccc13)CCC2	inconclusive: 4.47 µM [inhibitor, partial curve, poor fit]		
Cn1cc([C@@H](NC(=O)CCc2ccc3c(c2)OCO3)C2CC(O)C2)cn1 (stereo not given in full)		inactive: -13.5%	
COCC(=O)N1CCN2C(=O)N(C3CCCCC3)C[C@H]2C1		inactive: 19% [at 44.1 µM]	
COc1ccc(NC(=O)C2(C)CCCc3cnc(Nc4ccccc4)nc32)cn1 (stereo not given)	inconclusive: 5.62 µM [inhibitor, single point]		
O=C(NC1CCCCC1)[C@@H]1C[C@@H](O)CN1C1CCN(C(=O)C2(c3ccccc3)CC2)CC1	inconclusive: 8.91 µM [inhibitor, partial curve, poor fit]		
COc1ccc(F)cc1S(=O)(=O)NC1CCc2nnc(C3CC3)n2CC1 (stereo not given)			inactive
CC(=O)N1CC2(CCN(Cc3nnc(C)n3C)CC2)CC1C(=O)O (stereo not given)		inactive: -6.42%	
COc1cccc(N2CCN(C(=O)c3cc4c(=O)n(Cc5cccs5)ccc4nc3C)CC2)c1	inconclusive: 10 µM [inhibitor, single point]		
COc1ccc(C2Cn3nnc(-c4noc(-c5cccc(Cl)c5)n4)c3CO2)cc1 (stereo not given)	inconclusive: 1 µM [inhibitor, partial curve, poor fit]		
C=CCO[C@@H]1C[C@H]2C(=O)Nc3ccc(-c4ccc(F)cc4F)cc3C(=O)N2C1			inactive [at 44.1 µM]
CN1[C@H](CO)C[C@H](CNC(=O)c2cn(CCN)nn2)[C@@H]1c1ccccc1F		inactive: 10.5%	
O=C(NCC1Cn2cccc2CN1Cc1ccccc1)c1c[nH]c2ccccc12 (stereo not given)	inconclusive: 20 µM [inhibitor, partial curve, poor fit]		
COCC(=O)N1CCN(C(C)=O)C[C@@H]1C(=O)N[C@H](Cc1cccnc1)C(=O)OC		inactive: 24.3% [at 44.1 µM]	
CCn1c(CN2CCCCC2)nc2cc(NC(=O)c3ccccc3[N+](=O)[O-])ccc21	inconclusive: 11.2 µM [inhibitor, single point]		
CC(C)C(NC(=O)C1CCN(C(=O)C2CC2)CC1)c1nccn1C (stereo not given)		inactive: -0.43%	

SMILES	Potency	activity, negative = inhibition	outcome
CN1C[C@@H](NC(=O)Nc2cccc(C#N)c2)C[C@H]1c1nc(-c2ccncc2)no1	inconclusive: 31.6 µM [inhibitor, single point]		
CCNC(=O)N[C@H]1[C@H](O)[C@@H](N2CCN(c3ccccc3)CC2)[C@@H]2OC[C@H]1O2		inactive: -12% [at 44.1 µM]	
Cc1cccc(Cn2c(SCc3ccc(C(=O)N4CCC(C)CC4)cc3)nc3ccncc32)c1	inconclusive: 8.91 µM [inhibitor, partial curve]		
O=C(Cc1cccc(F)c1)N1CCCC(Cc2nc(C3CCOCC3)no2)C1 (stereo not given)	inconclusive: 1.78 µM [inhibitor, full curve]		
COc1ccc(F)c(CN2CCCC(O)(CN3CCOC(C)(C)C3)C2=O)c1 (stereo not given)		inactive: 8.69%	
COc1cc2c(cc1OC1CCCC1)NC(=O)C21CCN(Cc2ccccc2O)CC1	inconclusive: 3.55 µM [inhibitor, single point]		
Cc1cnc(CCNS(=O)(=O)c2ccc(C#N)cc2)n1C1CC1		inactive: -13.4%	
O=C(CN1CCN(C(=O)c2cc3c(s2)CN(C2CCCC2)C3)CC1)N1CCCC1	inconclusive: 1.26 µM [inhibitor, full curve, poor fit]		
COc1ccc(CCNC(=O)c2ccc(-n3c(C)cc4c3CCCC4)cc2)cc1OC	active: 11.2 µM		
COCCOc1ccc(C(=O)N[C@@H]2CN(C(=O)NCc3ccccc3)CCC[C@H]2O)cc1		inactive: 17.1%	
Cc1cnc(C)c(-c2cc(O)c3c(c2)CN(C(=O)c2ccncn2)CCO3)n1		inactive: -14.3%	
CC[C@H]1CN(C(=O)c2ccc(F)cc2)CC[C@H]1CC(=O)Nc1ccccc1	inconclusive: 7.94 µM [inhibitor, partial curve]		
COCC(=O)N[C@H]1C[C@H]2C(=O)NC[C@@H](CCC(=O)N3CCN(c4ccccc4)CC3)N2C1		inactive: 2.05%	
CN1Cc2ccc(Nc3ccccc3)nc2C(C)(C(=O)NCCc2cnc[nH]2)C1 (stereo not given)		inactive: -18.2% [at 44.1 µM]	
Cc1nn2c(c1-c1ccccc1-c1ccccc1)N(C(=O)COc1ccccc1)CCC2	inconclusive: 11.2 µM [inhibitor, partial curve, poor fit]		
Cc1cccc(NC(=O)Cn2cnc(S(=O)(=O)N3CCCC3)c2)c1C	inconclusive: 0.0631 µM [inhibitor, full curve, poor fit]		
COc1ccccc1NC(=O)CN1C(=O)CC(c2ccc(C)c(C)c2)=Nc2ccccc21	inconclusive: 11.2 µM [inhibitor, single point]		
Cc1nc(C)c(C(=O)NCCc2noc(-c3ccncc3)n2)s1	inconclusive: 2.24 µM [inhibitor, partial curve, poor fit]		
CC(C)C[C@@H]1N[C@H](C(=O)NCc2ccc(F)cc2)Cc2cn(C)c3cccc1c23	active: 14.1 µM		
CCC(C)NC(=O)Cn1c(=O)n(-c2ccc(Cl)c(Cl)c2)c(=O)c2c(C)c(C(=O)N(CC)CC)sc21 (stereo not given)	inconclusive: 17.8 µM [inhibitor, single point]		
COc1ccc(-c2noc(-c3cccn3CC(=O)NC(C)C)n2)cc1F	inconclusive: 1.41 µM [inhibitor, full curve]		
O=C(Nc1ccc2nc(SCC(=O)N3CCCC3)sc2c1)c1ccc(Br)cc1	inconclusive: 11.2 µM [inhibitor, single point]		

SMILES	Potency	activity, negative = inhibition	outcome
CCc1noc(-c2cn(C3CCN(C(=O)Cc4cccc(OC)c4)CC3)nn2)n1	inconclusive: 1.26 µM [inhibitor, partial curve]		
CC(=O)N1CCC(Cc2noc(-c3ccc(F)cc3)n2)C1 (stereo not given)	inconclusive: 3.16 µM [inhibitor, partial curve]		
CCOC(=O)c1cc(-c2ccccc2)n(-c2cccc(C(=O)Nc3cccc(C)c3)c2)c1C	active: 11.2 µM		
Clc1cc(NCCOc2ccccc2)n2nccc2n1	inconclusive: 31.6 µM [inhibitor, single point]		
CC(c1cccs1)N(C)C(=O)Cc1ccc(F)cc1 (stereo not given)	inconclusive: 12.6 µM [inhibitor, single point]		
COc1cc(NC(=O)c2ccc3c(c2)N(C)C2CCCN2C3=O)cc(OC)c1OC (stereo not given)			inactive
Cc1cccc(OCCSc2nc3ccc(NC(=O)c4cccs4)cc3s2)c1	inconclusive: 1 µM [inhibitor, partial curve]		
CN(Cc1cccnc1)Cc1nc(C2(O)CCN(Cc3ccccc3C(F)(F)F)CC2)cs1	inconclusive: 20 µM [inhibitor, single point]		
CCn1ccc(C(=O)N2CCC3(CC2)NCCc2c3[nH]c3ccc(OC)cc23)n1	inconclusive: 10 µM [inhibitor, single point]		
Cc1ccc(OCC(=O)Nc2cc(-c3nc4ccccc4[nH]3)ccc2C)c(C)c1	inconclusive: 5.01 µM [inhibitor, partial curve, poor fit]		
O=C(NCCCc1ccccc1)C1CCN(C(=O)N2CC3CC(C2)[C@H]2CCCC(=O)N2C3)CC1 (stereo not given in full)			inactive
Cc1cccc(Cn2cc(S(=O)(=O)c3ccc(Cl)cc3)c(=O)c3cc4c(cc32)OCO4)c1	inconclusive: 10 µM [inhibitor, single point]		
COc1ccc(CNC(=O)[C@@H]2CCC[C@@H](NCc3ccc(C(F)(F)F)cc3)CN(C)C(=O)C2)cc1	inconclusive: 17.8 µM [inhibitor, single point]		
COc1cccc(CN2CCC(N3C(=O)C(OCC4CC4)C34CCCCC4)CC2)c1OC (stereo not given)	inconclusive: 11.2 µM [inhibitor, partial curve, poor fit]		
CCC1(C(=O)NCCCN2CCc3ccccc3C2)CCCCC(=O)N1 (stereo not given)		inactive: 18.2%	
N#Cc1ccc(S(=O)(=O)N2CCCOCCNC(=O)[C@@H]3CCC[C@@H]32)cc1		inactive: -5.15%	
CCC(C)n1c(SCc2ccc(C(C)(C)C)cc2)nc2ccsc2c1=O (stereo not given)	inconclusive: 17.8 µM [inhibitor, single point]		
Cc1cn2nc(C(=O)N3CCC(NC(=O)c4c(F)cccc4F)CC3)cc2c(=O)[nH]1		inactive: -25.6%	
CCOc1ccc(CC(=O)N2CCN(C(=O)c3nnn4c3COC(c3ccc(C)cc3)C4)CC2)cc1 (stereo not given)	inconclusive: 11.2 µM [inhibitor, partial curve, poor fit]		
O=C(CCn1ccn2nc3c(c2c1=O)CCCC3)NCc1ccc2c(c1)OCO2	inconclusive: 17.8 µM [inhibitor, single point]		
CC[C@H]1CN(S(=O)(=O)c2c(C)noc2C)CC[C@H]1CC(=O)NCc1ccco1		inactive: -2.91% [at 44.1 µM]	
